# Data as given in publication PMC4336329 (PLoS ONE, 2015).
# The whole screen tested about 310,000 compounds, of which about 14,000 (4.5%) showed an effect of 50% or more. Effects have a minus sign here. Some of the results follow.
# Biological target: human ether-à-go-go-related gene (hERG) potassium channel (human, UniProt Q12809)
# Assay: primary screen, population patch clamp on CHO cells stably expressing hERG
# 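Further: peak tail current of the secondary pulse compared with the same well before compound.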
# human ether-à-go-go-related gene (hERG) potassium channel, sequence (Q12809 whole entry, looked up): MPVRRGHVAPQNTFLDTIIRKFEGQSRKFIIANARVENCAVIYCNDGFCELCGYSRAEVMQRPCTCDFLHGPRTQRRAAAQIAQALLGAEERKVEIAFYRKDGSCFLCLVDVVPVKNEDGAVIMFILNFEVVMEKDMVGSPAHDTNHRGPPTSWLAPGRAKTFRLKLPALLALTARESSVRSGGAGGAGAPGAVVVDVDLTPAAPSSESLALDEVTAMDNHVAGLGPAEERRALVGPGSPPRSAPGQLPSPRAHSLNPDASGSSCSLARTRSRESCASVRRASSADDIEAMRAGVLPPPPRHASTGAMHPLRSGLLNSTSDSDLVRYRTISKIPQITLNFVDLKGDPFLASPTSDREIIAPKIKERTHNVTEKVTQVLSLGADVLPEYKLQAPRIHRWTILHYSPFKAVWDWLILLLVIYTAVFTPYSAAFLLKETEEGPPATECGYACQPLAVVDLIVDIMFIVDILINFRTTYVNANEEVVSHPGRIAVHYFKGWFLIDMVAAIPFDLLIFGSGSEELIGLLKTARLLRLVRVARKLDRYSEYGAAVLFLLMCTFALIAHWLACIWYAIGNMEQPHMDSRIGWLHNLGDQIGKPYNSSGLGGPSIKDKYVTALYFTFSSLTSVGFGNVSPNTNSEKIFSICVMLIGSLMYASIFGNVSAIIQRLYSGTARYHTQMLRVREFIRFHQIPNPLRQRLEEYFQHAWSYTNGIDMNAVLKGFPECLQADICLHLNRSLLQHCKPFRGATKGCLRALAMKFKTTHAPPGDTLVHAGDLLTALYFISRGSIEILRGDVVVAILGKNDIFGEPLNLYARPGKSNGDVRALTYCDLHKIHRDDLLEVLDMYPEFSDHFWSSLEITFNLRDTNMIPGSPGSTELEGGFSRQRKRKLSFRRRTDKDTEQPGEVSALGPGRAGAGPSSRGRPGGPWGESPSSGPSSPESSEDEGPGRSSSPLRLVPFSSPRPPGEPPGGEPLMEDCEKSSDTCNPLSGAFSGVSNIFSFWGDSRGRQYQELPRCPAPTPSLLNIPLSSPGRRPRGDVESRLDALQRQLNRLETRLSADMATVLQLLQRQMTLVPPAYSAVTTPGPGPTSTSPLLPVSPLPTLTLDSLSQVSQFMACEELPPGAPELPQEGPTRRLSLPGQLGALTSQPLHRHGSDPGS
row,SMILES,"hERG current change (%, negative = inhibition) at 10uM [%]"
1,Cc1cc(C)nc(NCCO)n1.Cl,13
2,CCNc1nc(NCC)nc(OCCNS(=O)(=O)c2cc(C)ccc2C)n1,-16.2
3,COc1ccc(-c2cc(C(F)F)n3ncc(C(=O)N4CCN(C(=O)c5ccco5)CC4)c3n2)cc1,-34.8
4,COc1cccc(/C=C2\SC(=S)N(CCC(=O)Nc3ccc(O)cc3)C2=O)c1,-0.539
5,CN(CC1CCCO1)S(=O)(=O)c1ccc(C(=O)Nc2nc(-c3ccccn3)cs2)cc1 (stereo not drawn),-23.3
6,CCc1ccc(NC(=O)C2=CC(c3ccc(OC)c(OC)c3)=NS(=O)(=O)N2C)cc1,-8.98
7,CCCOc1ccc(C2NC(=O)NC2=O)cc1 (stereo not drawn),11.8
8,CSCCC(=O)N1CCCC(N2CCN(c3cccc(C(F)(F)F)c3)CC2)C1 (stereo not drawn),-40.4
9,CCCCCCCCCCOC(=O)Cn1c(COc2cccc(C)c2)[n+](C)c2ccccc21.[Cl-],-76
10,O=C(c1ccc(Cl)cc1)N1CCC(O)(CSc2ccc(Cl)cc2)CC1,-44.4
11,COc1c(S(=O)(=O)N2CCN(C(=O)c3ccco3)CC2)ccc(Cl)c1Cl,-23.1
12,Nc1ncncc1-c1ccc([N+](=O)[O-])cc1,-9.28
13,Cc1ccc2[nH]c(=O)c(CN(C(=O)c3cccs3)c3ccccc3)cc2c1,13.8
14,CCOc1ccc(NC(=O)CCc2nnc3ccc(N4CCC(C)CC4)nn23)cc1,-27
15,O=S(=O)(c1ccc(Cl)cc1)N1CCN=C1SCc1ccc(Cl)c(Cl)c1,8.78
16,Cc1ccc(CC(=O)Nc2nc3ccccc3[nH]2)cc1C,-9.9
17,CCC1CCCCN1CCCNC(=O)c1ccc2c(c1)NC(=O)CN2C (stereo not drawn),19.4
18,O=C(CSc1nccc(=O)[nH]1)c1ccco1,-1.66
19,COc1ccc(Cl)cc1C(=O)NCCS(=O)(=O)N1CCN(c2ccccc2F)CC1,-42.7
20,CC(NC(=O)c1ccc(NC(=O)CC2SC(N3CCCC3)=NC2=O)cc1)c1ccc(F)cc1 (stereo not drawn),13.8
21,FC(F)(F)COc1nc(N/N=C/c2cccnc2)nc(N2CCCCC2c2ccccn2)n1 (stereo not drawn),-60.8
22,COc1ccccc1N(C(=O)CCl)c1cn(C(C)=O)c2ccccc12,-10.6

row,SMILES,"hERG current change (%, negative = inhibition) at 10uM [%]"
1,COC(=O)C(O)(NC(=O)c1ccncc1)C(F)(F)F (stereo not drawn),22
2,CCOC(=O)N1CCC(N2Cc3cccc(C(=O)Nc4cc(F)ccc4F)c3C2=O)CC1,-23.1
3,O=C(CSc1ccc(Cl)cc1)N/N=C/c1cccnc1,-40.3
4,Cc1ccccc1C(=O)Oc1cc(N)n(S(C)(=O)=O)n1,11.3
5,COc1ccc(C)cc1NC(=O)c1ccccc1NS(=O)(=O)c1cccc2cccnc12,12.6
6,Cc1cc(NC(=O)CSc2nnc(C(C)N(C)C)n2-c2ccc(F)cc2)no1 (stereo not drawn),31.1
7,C/C(Cl)=C/CSc1nc2c(c(=O)[nH]c(=O)n2C)n1C(C)C,-12
8,Cc1nnc(NC(=O)c2c(-c3ccccc3)noc2C)s1,19.9
9,O=c1c2sc3nc(N4CCOCC4)c4c(c3c2ncn1CCc1ccccc1)CCCC4,-8.42
10,COc1ccc(CCNC(=O)COc2cc(O)c3c(c2)OC(C)(C)CC3=O)cc1OC,-16.7
11,COc1ccc(OCC(=O)Nc2ccc(C)c(S(=O)(=O)N(C)C)c2)cc1,-3.39
12,COC(=O)c1c(C)[nH]c(C=Nc2ccc(OC)cc2)c1C,-4.74
13,CCOC(=O)c1cc(-c2ccccc2)sc1NC(=S)Nc1cccc(C)n1,10.9
14,CCCCn1c(N)c(N(CC)C(=O)c2cc(C)cc(C)c2)c(=O)[nH]c1=O,27.9
15,CC(=O)Nc1ccc(NC(=O)CSc2nc3[nH]ncc3c(=O)n2-c2ccccc2)cc1,32.8
16,CCN(CC)CCCNC(=O)CNC(=S)N(CCCN1CCOCC1)Cc1cccs1,4.78
17,COc1ccc2[nH]c3c(=O)n(CCCCC(=O)N4CCC(C(N)=O)CC4)c(=S)[nH]c3c2c1,16.5
18,O=C(/C=C/c1ccccc1)Nc1cc(C(=O)O)cc(C(=O)O)c1,9.48
19,CCOc1ccc(OCCSc2ccc(S(=O)(=O)N3CCN(C)CC3)cn2)cc1,-40.1
20,COc1ccc(S(=O)(=O)N2CCC(C(=O)N[C@@H](C)C(=O)NCc3ccc(F)cc3)CC2)cc1,1.43
21,COc1ccccc1-c1cc(C(=O)N2CCN(c3ccccc3OC)CC2)no1,12
22,Cc1ccc(-c2cc(Cc3ccncc3)c(=O)[nH]n2)cc1,-37.2

row,SMILES,"hERG current change (%, negative = inhibition) at 10uM [%]"
1,NC(=O)c1c(NC(=O)C(=O)NCCCN2CCOCC2)sc2c1CCCC2,-21.9
2,Cc1ccc(NS(=O)(=O)c2cc(C(=O)NCc3ccncc3)ccc2C)cc1,-29.6
3,CCn1c(SCC(=O)Nc2nc3ccccc3s2)nc2c(c1=O)SC(C)C2 (stereo not drawn),-25.8
4,CC(Sc1nncn1C)C(=O)Nc1nnc(C(C)C)s1 (stereo not drawn),3.52
5,COc1ccc(N=C2SC(CC(=O)Nc3ccccc3)C(=O)N2CC2CCCO2)cc1 (stereo not drawn),5.95
6,O=C(Nc1nnc(C2CC2)s1)C1CCCCN1S(=O)(=O)c1ccccc1 (stereo not drawn),10.2
7,CCOC(=O)c1cnc2c(OC)cccc2c1N1CC(C)CC(C)C1 (stereo not drawn),-17.1
8,[O-][n+]1ccc(C2CC2)cc1,7.13
9,Cc1cc(C(=O)Nc2ccc(F)cc2)c2ccccc2n1,-0.679
10,CCN(CC)CCNC(=O)c1ccc(NC(=O)C2CCN(S(=O)(=O)c3ccc4c(c3)OCCO4)CC2)cc1,25.8
11,COc1cnc(-c2ccccn2)nc1Sc1ccc(C)cc1,8.52
12,O=C(Nc1ccc(N2CCCC2)c(Cl)c1)c1ccc([N+](=O)[O-])cc1,15.9
13,NC(=O)c1ccccc1NS(=O)(=O)Cc1ccccc1,14.8
14,Cc1cccc(OCC(=O)O/N=C(\N)c2ccc(Br)cc2)c1,7.71
15,CCN(CC)c1ccc(/C=N/N2CCOCC2)c(O)c1,-2.51
16,COc1ccc(Oc2ccc(S(=O)(=O)N3CCCCC3)cc2S(=O)(=O)N2CCCCC2)cc1,-6.19
17,O=C(CN1CC=C(c2ccccc2)CC1)NC(=O)NCc1ccco1,-6.63
18,Cc1noc(C)c1-c1nc(CSc2ccccc2)no1,5.46
19,CN(C)S(=O)(=O)c1ccc(NC(=O)c2ccc3ncsc3c2)cc1,3.79
20,CCn1c(=O)c(C(=O)NCc2ccc(OC)c(OC)c2)c(O)c2ccccc21,18.4
21,O=C1C2C3C=CC(C3)C2C(=O)N1CNc1ccc(O)cc1 (stereo not drawn),-16.9
22,CCOC(=O)c1cc(CC)sc1NC(=O)COC,-19.5

row,SMILES,"hERG current change (%, negative = inhibition) at 10uM [%]"
1,CC(Sc1nnc(-c2ccncc2)n1C)C(=O)NCC1CCCO1 (stereo not drawn),4.42
2,COc1ccc(C2c3[nH]c4ccccc4c3C[C@H]3C(=O)N(CCCO)CC(=O)N23)c(OC)c1 (stereo partly drawn),0.728
3,COC(=O)C1=C(C(=O)OC)[C@@H]2N(C)c3ccccc3[C@@]23C[C@@H](CO)N(C(=O)c2cccs2)C3=N1,-4.01
4,CC1CCN(S(=O)(=O)c2cccc(C(=O)NC3CCCC3)c2)CC1,-16.8
5,CCOC(=O)C1CCCN(Cc2cc(Br)ccc2OC)C1 (stereo not drawn),-24.7
6,O=C(/C=C/c1c(Cl)cccc1Cl)NCCc1ccccc1,-0.235
7,CC1CCC[C@H](O)CCCCCc2cc(O)cc(O)c2C(=O)O1 (stereo partly drawn),5.64
8,COc1ccc([N+](=O)[O-])cc1NC(=O)CSCc1ccccc1,-23.3
9,COc1ccccc1CNC(=O)CCCn1nc(C)n2ccnc2c1=O,17
10,COc1ccc(S(=O)(=O)N2CCN(C(=O)NCc3ccccc3)CC2)cc1,-6.79
11,Cc1ccc2c(C(=O)CSc3ccccc3)c(C)[nH]c2c1,3.03
12,O=C(N/N=C/C=C/c1ccccc1)c1ccccc1Br,12.7
13,O=C(O)c1ccccc1-c1ccccc1C(=O)Nc1cccc(-c2nc3ccccc3o2)c1,13.1
14,CCCOc1ccc(-c2c(C(=O)N/N=C(\C)c3ccco3)nnn2-c2nonc2N)cc1,22.5
15,COc1cnc(-c2ccccn2)nc1Sc1c(Cl)cccc1Cl,1.45
16,S=C(Nc1ccc(Br)cc1Cl)N1CCN(c2ccccn2)CC1,-4.02
17,CC1(C)Cc2nc3sc(C(N)=O)c(N)c3cc2CO1,18.3
18,O=C(Nc1nc2nccc(-c3ccccc3)n2n1)c1ccc(F)cc1,33.2
19,CCS(=O)(=O)c1nc(S(=O)(=O)c2ccc(Cl)cc2)c(NCCN2CCOCC2)s1,-0.472
20,CC(C)CNC(=O)CN(C1CCCCC1)S(=O)(=O)c1ccccc1,0.637
21,O=C(CSc1n[nH]c(-c2cccnc2)n1)Nc1ccnc2ccccc12,5.38
